Publication PMC4336329 (PLoS ONE, 2015)
In all, about 310,000 compounds went through this assay and about 14,000 (4.5%) showed an effect of 50% or more. Effects have a minus sign here. This is one part of the list.

target: human ether-à-go-go-related gene (hERG) potassium channel (human, UniProt Q12809); test: primary screen, population patch clamp on CHO cells stably expressing hERG
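Further: peak tail current of the secondary pulse compared with the same well before compound.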

Chain of human ether-à-go-go-related gene (hERG) potassium channel (Q12809 whole entry, looked up): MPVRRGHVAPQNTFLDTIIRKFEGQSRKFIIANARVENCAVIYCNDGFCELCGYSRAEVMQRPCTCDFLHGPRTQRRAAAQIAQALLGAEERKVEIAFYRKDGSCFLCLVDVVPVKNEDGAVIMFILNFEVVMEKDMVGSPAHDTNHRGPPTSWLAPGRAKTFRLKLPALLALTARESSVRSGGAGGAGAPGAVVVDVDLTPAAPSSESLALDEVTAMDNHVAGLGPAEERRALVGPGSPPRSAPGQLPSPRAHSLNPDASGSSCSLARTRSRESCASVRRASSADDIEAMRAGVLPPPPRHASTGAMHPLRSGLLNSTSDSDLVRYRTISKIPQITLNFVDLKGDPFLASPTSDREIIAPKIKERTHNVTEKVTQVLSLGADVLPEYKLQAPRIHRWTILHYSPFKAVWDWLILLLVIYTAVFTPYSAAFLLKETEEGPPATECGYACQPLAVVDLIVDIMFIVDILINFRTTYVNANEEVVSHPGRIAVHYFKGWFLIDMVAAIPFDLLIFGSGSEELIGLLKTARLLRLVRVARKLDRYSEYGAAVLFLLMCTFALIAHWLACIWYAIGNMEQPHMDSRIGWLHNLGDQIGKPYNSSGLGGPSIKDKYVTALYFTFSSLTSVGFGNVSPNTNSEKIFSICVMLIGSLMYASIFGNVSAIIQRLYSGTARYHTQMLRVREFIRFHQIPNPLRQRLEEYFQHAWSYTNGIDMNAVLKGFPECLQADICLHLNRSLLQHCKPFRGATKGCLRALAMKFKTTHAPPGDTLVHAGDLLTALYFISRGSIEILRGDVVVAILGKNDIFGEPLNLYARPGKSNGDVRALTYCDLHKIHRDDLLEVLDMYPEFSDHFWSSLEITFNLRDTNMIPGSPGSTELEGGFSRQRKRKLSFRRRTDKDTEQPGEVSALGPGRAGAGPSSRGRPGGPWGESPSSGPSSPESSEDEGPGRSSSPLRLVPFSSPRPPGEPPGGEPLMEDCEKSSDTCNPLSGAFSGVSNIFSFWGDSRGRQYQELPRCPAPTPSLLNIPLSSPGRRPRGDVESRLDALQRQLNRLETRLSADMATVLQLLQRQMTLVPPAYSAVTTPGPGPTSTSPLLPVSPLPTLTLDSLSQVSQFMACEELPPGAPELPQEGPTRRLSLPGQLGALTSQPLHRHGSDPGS

Structure (SMILES) | hERG current change (%, negative = inhibition) at 10uM [%]
O=C(NCc1cccnc1)c1cc(Sc2ccc(F)cc2F)nc2ccccc12 | -55.3
Cc1ccc(-c2cc(C(=O)Nc3ccc(S(=O)(=O)N4CC(C)OC(C)C4)cc3)[nH]n2)c(O)c1 (centres unmarked) | 18.3
CCN(CC)C(=O)c1[nH]cnc1C(=O)N[C@@H](CC(C)C)C(=O)OC(C)(C)C | -0.88
CC(C)NCC(O)COc1ccc(Br)cc1.Cl (centres unmarked) | -30.3
CCOC(=O)C(O)(c1ccc(N)c(OC)c1)C(F)(F)F (centres unmarked) | 2.17
CN(C(=O)CN1CCC(NC(=O)c2ccccc2Br)CC1)C1CCCCC1 | 1.21
O=C(CCc1ccc(S(=O)(=O)NC2CCCCC2)cc1)NCc1ccccn1 | 16.6
Cc1ccccc1NC(=O)COC(=O)C1C2CC3OC(=O)C1C3C2 (centres unmarked) | -8.23
O=C(Nc1nnc(C2=COCCO2)o1)c1ccc([N+](=O)[O-])s1 | -4.83
CN1CC(=O)N2[C@H](c3ccc4c(c3)OCO4)c3[nH]c4ccccc4c3C[C@@H]2C1=O | 4.73
CC(=O)Nc1ccc(C(=O)CSc2nnc(C)o2)cc1 | -0.917
Cc1ccc([C@@H]2[C@@H]3C(=O)N(c4ccccc4)C(=O)[C@@H]3[C@]3(C)C(=O)N(Cc4ccc(-c5ccccc5)cc4)CC(=O)N23)o1 | -3.86
CC(C)NC(=O)c1ccc(-c2cc(C(F)(F)F)ccc2Cl)o1 | 6.95
Cc1c(Cl)cccc1NC(=O)CSCC(N)=O | -10.1
CCCCn1c(=O)n(CC(=O)Nc2ccc(OC)c(Cl)c2)c(=O)c2c1nc(CO)n2CCC | -19.4
CCC(O)CNC(=O)NC(=C(Cl)Cl)c1ccc(C)c(F)c1 (centres unmarked) | -12.6
CCc1ccc(S(=O)(=O)NCCc2cn3cccc(C)c3n2)s1 | -16.2
CN(CCc1cn[nH]c1)Cc1nc(Cc2ccccc2F)no1 | 10.4
CCOc1ccc(-c2nnc3sc(COc4ccc(C)cc4)nn23)cc1 | 13.3
COC(=O)c1cc2c(ccn2-c2ccc(F)cc2)n1CC(=O)N1CCN(C(=O)c2ccco2)CC1 | -66.6
O=C1CC2c3ccccc3C1C1C(=O)N(Cc3ccccc3)C(=O)C21 (centres unmarked) | 3.15
O=C(c1cccc([N+](=O)[O-])c1)c1ccc2c(c1)OCCOCCOCCOCCO2 | -69.8

Structure (SMILES) | hERG current change (%, negative = inhibition) at 10uM [%]
COc1ccc(CCNC(=O)CSc2nnc3ccc(-c4ccccn4)nn23)cc1 | -51.6
CN(CC(=O)Nc1ccccc1C(F)(F)F)C(=O)CCc1nc2sc3c(c2c(=O)[nH]1)CCCC3 | 7.94
COc1ccc(Oc2c(Cl)cnn(-c3ccc(F)cc3)c2=O)cc1 | -24.2
Cc1cccc(NC(=O)CC2(CC(=O)O)CCCC2)c1 | 24.6
CCCCC(=O)Nc1ccc(C(=O)NNC(=O)CCc2ccccc2)cc1 | 17.2
O=C1NC(=S)N/C1=C\c1cccnc1 | 11.9
COc1ccc(C2(O)C(=O)Nc3ccc(C)cc32)cc1 (centres unmarked) | 11.7
O=C1c2cccc([N+](=O)[O-])c2C(=O)N1c1cccnc1 | 1.66
CC1CCCC(NC(=O)c2ccc3c(SCC(=O)O)c4c(nc3c2)CCC4)C1C (centres unmarked) | 3.49
COc1ccc(/C=C2/SC(=S)N(CCCC(=O)Nc3ccc(O)cc3)C2=O)cc1OC | 2.25
Cc1cccc(CCNS(=O)(=O)c2ccc(S(=O)(=O)N3CCC(C)CC3)cc2)c1 | 12.8
O=[N+]([O-])c1cccc(-c2n[nH]c(=S)n2-c2ccc(Br)cc2)c1 | -1.17
O=C(COC(=O)CCN1C(=O)/C(=C\C=C\c2ccccc2)SC1=S)Nc1ccc(Br)cc1 | 2.41
CCCCNc1nc2ccccc2n1CC(=O)Nc1ccc2c(c1)OCCO2 | -10.2
COC(=O)Cn1c2ccccc2c2nc(=O)cc(C)n21 | 20.9
COc1ccc(N2C(=O)C3C(C2=O)C(C(=O)c2ccc(Cl)cc2)N2CCCC32)cc1 (centres unmarked) | -30.8
CC(C)(C)NC(=O)COc1coc(CN2CCN(C(=O)c3ccco3)CC2)cc1=O | 20.1
CNC(=O)c1c(NC(=O)CS(=O)(=O)c2ccc(Cl)cc2)sc(C)c1C | -21.9
COc1ccc(C(=O)NCC(=O)NCC2COc3ccccc3O2)cc1 (centres unmarked) | -9.45
COc1ccc(-c2cc3ccccc3oc2=O)cc1 | 8.45
O=C(Nc1ccc(S(=O)(=O)Nc2nccc(C3Cc4ccccc4C(=O)O3)n2)cc1)c1ccccc1 (centres unmarked) | -6.29
O=C(O)Cn1c(P(=O)(O)c2ccccc2)nc2ccccc21 | 12.9

Structure (SMILES) | hERG current change (%, negative = inhibition) at 10uM [%]
CC(=O)Nc1ccc(S(=O)(=O)NC2=NCN(c3cccc([N+](=O)[O-])c3)CN2)cc1 | 29.8
CC(CC(=O)Nc1cc([N+](=O)[O-])ccc1Cl)c1ccccc1 (centres unmarked) | 5.92
CC(OC(=O)c1cc(Br)ccc1O)C(=O)NCc1ccc2c(c1)OCO2 (centres unmarked) | -0.383
COc1ccc(C2C(C(=O)Nc3ccccc3)=C(C)Nc3nc(CCCO)nn32)cc1 (centres unmarked) | 12.3
O=C(CCN1C(=O)C2C3C=CC(C4CC34)C2C1=O)OCC(=O)c1ccccc1 (centres unmarked) | -12.3
CCCc1cc(=O)oc2cc(C)cc(OCC(=O)O)c12 | 15.5
COCCCn1c(SCC(=O)N2CCOCC2)nc2ccccc2c1=O | -5.65
COc1ccc(CNC(=O)CSc2nc3c(oc4ccccc43)c(=O)n2CC2CCCO2)cc1 (centres unmarked) | -60.6
COc1ccc(C(=O)Nc2c(Cl)cc(Cl)cc2C(=O)NCCN2CCOCC2)cc1 | -15.6
COc1cccc2c1O[C@H]1C(=O)CC[C@H]3CN(C)CCC231 (some centres unmarked) | 16.5
CCCn1c(SCc2ccccn2)nc2c1c(=O)n(C)c(=O)n2C | 7.57
OCCn1nc2c3ccccc3nc-2n(-c2ccccc2)c1=S | -9.49
COc1ccc(OCC(=O)NNc2c3ccccc3nc3ccccc23)cc1 | 21.2
COc1ccccc1C(C)NC(=O)c1cc(=O)[nH]c2ccccc12 (centres unmarked) | 23.6
CCC(C(=O)NC(C)(C)C)N(C(=O)Cn1nnc(-c2ccccc2F)n1)c1cnc2ccccc2c1 (centres unmarked) | 21.4
Cl.O=C(NCC1CCNCC1)c1ccncc1 | 13.4
Cc1ccccc1CSCCNC(=O)c1ccc(N(C)S(=O)(=O)c2ccccc2)cc1 | -18.4
COc1ccc(C(=O)CSc2nncn2C)cc1 | 18.9
CC(=O)c1ccc(N(C(=O)c2csnn2)C(C(=O)NC2CCCC2)c2ccccc2)cc1 (centres unmarked) | -54.9
COc1cc(-c2ccccc2)nc(N)n1 | -12.5
CCCCOc1ccc(C(=O)NCC(=O)NCC(=O)OCC)cc1 | 7.17
O=C(Cn1cccc1C(=O)c1ccccc1)NCCCN1CCc2ccccc2C1 | -74.1

Structure (SMILES) | hERG current change (%, negative = inhibition) at 10uM [%]
c1ccc(C(c2ccccc2)N2CCN(Cc3nc(-c4cnccn4)no3)CC2)cc1 | -21.6
COc1cccc(-c2ncc3ccccc3c2COC(=O)N2CCOCC2)c1 | -19.7
Cc1csc(C(=O)O)c1-n1cccc1 | 18.6
CCOC(=O)C1CCCN(C(=O)Cn2cnc3c2c(=O)n(C)c(=O)n3C)C1 (centres unmarked) | 20.3
CCOc1ccc(Br)cc1/C=N/NC(=O)c1ccncc1 | -17.3
CCCCNC(=O)Nc1c(C(=O)OC)[nH]c2ccc(C)cc12 | -2.17
COc1ccc(NC(=O)C2CCCN(S(=O)(=O)c3cccc4cccnc34)C2)c(OC)c1 (centres unmarked) | -4.99
COc1ccc(NC(=O)c2ccc(Cl)c(S(=O)(=O)N3CC(C)OC(C)C3)c2)cn1 (centres unmarked) | -7.91
CC(c1ccccc1)C1C(C#N)=C(N)SC(N)=C1C#N (centres unmarked) | -4.5
COc1ccccc1CCc1nnc(CCC(=O)N(C)Cc2cccc3ncccc23)o1 | -15.1
Cc1cccn2c(=O)nc(SCC(=O)Nc3ccc4c(c3)OCO4)nc12 | -5.58
O=C(Nc1ccc(C(F)(F)F)cc1)C1CCCN1S(=O)(=O)c1cccc2cccnc12 (centres unmarked) | -51.9
O=C(CSc1ncnc2sc3c(c12)CCCC3)c1ccccc1 | 3.83
COc1ccc(NC(=O)NCCN2CCCCC2)cc1 | -10.1
Cc1cccc(NC(=S)N(CCN2CCOCC2)Cc2ccccc2F)c1 | -25
CC(=O)c1ccc(NC(=O)Nc2ccc(Br)cc2C)cc1 | 22.3
O=C(NC1CCN(CC(=O)N(c2ccccc2)c2ccccc2)CC1)c1ccc([N+](=O)[O-])cc1 | -78
CC(C)Oc1cccc(C(=O)N/N=C/c2ccoc2)c1 | 8.71
CCn1ccc(C(=O)NCc2ccc3c(c2)OCO3)n1 | 13.2
COC(=O)c1sc(S(=O)(=O)NCc2ccccc2)c(C(=O)OC)c1C | -50.4
